From ChEMBL document CHEMBL4339217, “Discovery of Pyrido[3',2':5,6]thiopyrano[4,3-d]pyrimidine-Based Antiproliferative Multikinase Inhibitors” (ACS Med Chem Lett, 2019)

Assays:
[1] = test system: HeLa; assay: Growth inhibition of human HeLa cells incubated for 72 hrs by trypan blue assay; format: functional
[2] = test system: A-431; assay: Growth inhibition of human A431 cells incubated for 72 hrs by trypan blue assay; format: functional; details: A-431, 72 h
[3] = test system: HUVEC; assay: Growth inhibition of HUVEC incubated for 72 hrs by trypan blue assay; format: functional; details: Homo sapiens
[4] = test system: MSTO-211H; assay: Growth inhibition of human MSTO-211H cells incubated for 72 hrs by trypan blue assay; format: functional
[5] = biological target: Platelet-derived growth factor receptor beta (Homo sapiens) (UniProt P09619); assay: Inhibition of recombinant human PDGFRB at 10 uM using Ulight-Poly GAT[EAY(1:1:1)]n substrate incubated for 30 mins by LANCE assay relative to untreated control
[6] = biological target: Epidermal growth factor receptor (Homo sapiens) (UniProt P00533); assay: Inhibition of recombinant human EGFR at 10 uM using Ulight-CAGAGAIETDKEYYTVKD substrate incubated for 15 mins by LANCE assay relative to untreated control
[7] = biological target: Cyclin-dependent kinase 1/cyclin B1 (Homo sapiens) (UniProt P06493+P14635); assay: Inhibition of recombinant human CDK1/cyclin B at 10 uM using Ulight-CFFKNIVTPRTPPPSQGK-amide substrate incubated for 15 mins by LANCE assay relative to untreated control; format: protein-complex assay
[8] = biological target: T1, Aurora kinase A (Homo sapiens) (UniProt O14965); assay: Inhibition of recombinant human aurora A at 10 uM using Ulight-RRRSLLE substrate incubated for 15 mins by LANCE assay relative to untreated control
T1 sequence (whole entry): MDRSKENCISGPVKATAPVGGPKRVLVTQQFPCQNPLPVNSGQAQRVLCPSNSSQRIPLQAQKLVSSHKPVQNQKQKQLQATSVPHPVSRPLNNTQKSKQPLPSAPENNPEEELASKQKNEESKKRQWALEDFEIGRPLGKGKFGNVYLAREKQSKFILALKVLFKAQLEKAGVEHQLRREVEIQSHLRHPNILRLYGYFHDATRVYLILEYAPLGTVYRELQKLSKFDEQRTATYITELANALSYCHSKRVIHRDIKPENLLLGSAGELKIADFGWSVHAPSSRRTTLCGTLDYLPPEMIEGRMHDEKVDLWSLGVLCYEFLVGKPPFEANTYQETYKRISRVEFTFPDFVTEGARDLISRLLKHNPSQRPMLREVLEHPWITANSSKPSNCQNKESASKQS

[9] = biological target: Proto-oncogene tyrosine-protein kinase Src (Homo sapiens) (UniProt P12931); assay: Inhibition of recombinant human SRC at 10 uM using Ulight-Poly GAT[EAY(1:1:1)]n substrate incubated for 30 mins by LANCE assay relative to untreated control
[10] = biological target: Vascular endothelial growth factor receptor 2 (Homo sapiens, UniProt P35968); assay: Inhibition of recombinant human KDR incubated for 1 hr using Tyr1 substrate by fluorimetry based Z'-LYTE-Tyr1 Peptide assay
Sequence of UniProt P35968 (P35968 whole entry): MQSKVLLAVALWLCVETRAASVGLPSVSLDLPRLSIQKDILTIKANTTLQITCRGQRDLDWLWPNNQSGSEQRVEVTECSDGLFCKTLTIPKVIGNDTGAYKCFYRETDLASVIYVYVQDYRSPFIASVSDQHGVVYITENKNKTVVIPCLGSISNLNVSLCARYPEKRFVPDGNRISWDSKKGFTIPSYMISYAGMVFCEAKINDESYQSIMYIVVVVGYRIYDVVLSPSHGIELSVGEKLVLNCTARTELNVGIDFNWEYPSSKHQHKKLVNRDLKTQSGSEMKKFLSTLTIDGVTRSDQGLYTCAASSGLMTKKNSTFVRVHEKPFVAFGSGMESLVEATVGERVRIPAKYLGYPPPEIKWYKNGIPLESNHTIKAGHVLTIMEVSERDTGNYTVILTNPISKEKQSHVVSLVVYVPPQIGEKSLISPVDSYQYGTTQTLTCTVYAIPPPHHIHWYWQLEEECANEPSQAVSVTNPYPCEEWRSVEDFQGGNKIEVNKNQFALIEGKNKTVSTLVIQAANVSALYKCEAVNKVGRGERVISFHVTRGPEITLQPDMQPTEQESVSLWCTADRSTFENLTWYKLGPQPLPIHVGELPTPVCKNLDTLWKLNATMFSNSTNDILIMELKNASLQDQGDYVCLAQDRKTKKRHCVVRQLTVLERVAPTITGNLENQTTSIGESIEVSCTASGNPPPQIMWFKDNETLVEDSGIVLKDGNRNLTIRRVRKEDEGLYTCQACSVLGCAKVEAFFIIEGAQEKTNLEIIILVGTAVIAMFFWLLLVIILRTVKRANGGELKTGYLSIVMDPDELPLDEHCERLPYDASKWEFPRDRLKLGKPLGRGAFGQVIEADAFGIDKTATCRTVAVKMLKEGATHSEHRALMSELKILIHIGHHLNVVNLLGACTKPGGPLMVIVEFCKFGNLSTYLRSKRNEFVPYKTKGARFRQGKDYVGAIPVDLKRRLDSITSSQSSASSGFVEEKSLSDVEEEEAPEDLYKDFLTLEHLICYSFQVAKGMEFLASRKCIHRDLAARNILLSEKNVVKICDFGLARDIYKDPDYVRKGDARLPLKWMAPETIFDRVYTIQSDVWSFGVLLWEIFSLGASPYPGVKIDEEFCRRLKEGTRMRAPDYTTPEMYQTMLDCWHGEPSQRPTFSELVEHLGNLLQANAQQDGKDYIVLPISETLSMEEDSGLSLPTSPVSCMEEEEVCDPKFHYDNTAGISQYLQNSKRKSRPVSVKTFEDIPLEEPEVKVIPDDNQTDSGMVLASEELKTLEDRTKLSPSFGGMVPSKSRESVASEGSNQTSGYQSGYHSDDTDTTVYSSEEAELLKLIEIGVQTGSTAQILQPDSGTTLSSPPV

Sequence of UniProt P00533 (P00533 whole entry): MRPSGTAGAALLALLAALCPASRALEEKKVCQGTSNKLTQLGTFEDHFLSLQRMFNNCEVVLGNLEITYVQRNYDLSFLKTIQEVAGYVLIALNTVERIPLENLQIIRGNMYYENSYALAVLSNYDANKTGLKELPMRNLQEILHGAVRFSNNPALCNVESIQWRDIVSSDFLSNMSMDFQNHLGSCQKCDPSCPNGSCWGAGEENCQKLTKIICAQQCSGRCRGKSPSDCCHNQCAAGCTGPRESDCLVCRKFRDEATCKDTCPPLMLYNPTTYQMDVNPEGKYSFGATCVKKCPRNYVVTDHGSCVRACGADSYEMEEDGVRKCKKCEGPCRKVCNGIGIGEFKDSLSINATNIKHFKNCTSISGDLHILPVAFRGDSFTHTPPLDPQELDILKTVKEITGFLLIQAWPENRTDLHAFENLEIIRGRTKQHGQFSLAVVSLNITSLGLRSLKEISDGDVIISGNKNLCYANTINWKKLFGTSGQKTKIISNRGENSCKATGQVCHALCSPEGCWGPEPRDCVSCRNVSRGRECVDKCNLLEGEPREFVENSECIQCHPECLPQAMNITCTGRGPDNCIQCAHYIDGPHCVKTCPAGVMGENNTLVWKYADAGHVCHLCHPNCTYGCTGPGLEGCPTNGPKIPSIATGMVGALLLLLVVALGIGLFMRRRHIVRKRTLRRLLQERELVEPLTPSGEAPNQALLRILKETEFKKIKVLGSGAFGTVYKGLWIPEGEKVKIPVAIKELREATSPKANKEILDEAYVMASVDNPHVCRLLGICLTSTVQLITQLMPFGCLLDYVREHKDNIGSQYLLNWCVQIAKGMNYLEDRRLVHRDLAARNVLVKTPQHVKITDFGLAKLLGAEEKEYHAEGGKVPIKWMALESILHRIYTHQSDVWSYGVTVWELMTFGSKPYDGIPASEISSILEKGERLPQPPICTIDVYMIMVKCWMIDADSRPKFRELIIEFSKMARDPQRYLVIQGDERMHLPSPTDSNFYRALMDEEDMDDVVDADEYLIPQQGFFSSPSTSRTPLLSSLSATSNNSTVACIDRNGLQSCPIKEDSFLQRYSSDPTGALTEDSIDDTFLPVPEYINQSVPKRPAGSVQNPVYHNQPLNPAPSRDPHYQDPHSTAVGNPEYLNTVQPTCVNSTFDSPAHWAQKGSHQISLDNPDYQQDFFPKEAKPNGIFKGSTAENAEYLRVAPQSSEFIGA
Sequence of UniProt P12931 (P12931 whole entry, looked up): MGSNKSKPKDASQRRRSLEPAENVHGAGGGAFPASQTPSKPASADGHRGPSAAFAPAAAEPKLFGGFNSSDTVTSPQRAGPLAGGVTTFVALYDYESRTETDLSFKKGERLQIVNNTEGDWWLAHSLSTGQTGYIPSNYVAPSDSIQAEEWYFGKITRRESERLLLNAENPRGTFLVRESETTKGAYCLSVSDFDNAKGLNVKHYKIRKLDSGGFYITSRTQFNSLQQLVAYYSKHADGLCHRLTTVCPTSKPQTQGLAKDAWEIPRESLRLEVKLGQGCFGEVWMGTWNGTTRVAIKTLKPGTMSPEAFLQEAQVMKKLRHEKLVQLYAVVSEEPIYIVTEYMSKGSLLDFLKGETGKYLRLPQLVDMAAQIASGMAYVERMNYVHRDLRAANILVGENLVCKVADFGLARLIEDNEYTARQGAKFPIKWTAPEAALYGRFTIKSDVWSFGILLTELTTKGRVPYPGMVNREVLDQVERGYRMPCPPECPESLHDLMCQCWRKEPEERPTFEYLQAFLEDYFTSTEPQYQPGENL
Sequence of UniProt P09619 (P09619 whole entry): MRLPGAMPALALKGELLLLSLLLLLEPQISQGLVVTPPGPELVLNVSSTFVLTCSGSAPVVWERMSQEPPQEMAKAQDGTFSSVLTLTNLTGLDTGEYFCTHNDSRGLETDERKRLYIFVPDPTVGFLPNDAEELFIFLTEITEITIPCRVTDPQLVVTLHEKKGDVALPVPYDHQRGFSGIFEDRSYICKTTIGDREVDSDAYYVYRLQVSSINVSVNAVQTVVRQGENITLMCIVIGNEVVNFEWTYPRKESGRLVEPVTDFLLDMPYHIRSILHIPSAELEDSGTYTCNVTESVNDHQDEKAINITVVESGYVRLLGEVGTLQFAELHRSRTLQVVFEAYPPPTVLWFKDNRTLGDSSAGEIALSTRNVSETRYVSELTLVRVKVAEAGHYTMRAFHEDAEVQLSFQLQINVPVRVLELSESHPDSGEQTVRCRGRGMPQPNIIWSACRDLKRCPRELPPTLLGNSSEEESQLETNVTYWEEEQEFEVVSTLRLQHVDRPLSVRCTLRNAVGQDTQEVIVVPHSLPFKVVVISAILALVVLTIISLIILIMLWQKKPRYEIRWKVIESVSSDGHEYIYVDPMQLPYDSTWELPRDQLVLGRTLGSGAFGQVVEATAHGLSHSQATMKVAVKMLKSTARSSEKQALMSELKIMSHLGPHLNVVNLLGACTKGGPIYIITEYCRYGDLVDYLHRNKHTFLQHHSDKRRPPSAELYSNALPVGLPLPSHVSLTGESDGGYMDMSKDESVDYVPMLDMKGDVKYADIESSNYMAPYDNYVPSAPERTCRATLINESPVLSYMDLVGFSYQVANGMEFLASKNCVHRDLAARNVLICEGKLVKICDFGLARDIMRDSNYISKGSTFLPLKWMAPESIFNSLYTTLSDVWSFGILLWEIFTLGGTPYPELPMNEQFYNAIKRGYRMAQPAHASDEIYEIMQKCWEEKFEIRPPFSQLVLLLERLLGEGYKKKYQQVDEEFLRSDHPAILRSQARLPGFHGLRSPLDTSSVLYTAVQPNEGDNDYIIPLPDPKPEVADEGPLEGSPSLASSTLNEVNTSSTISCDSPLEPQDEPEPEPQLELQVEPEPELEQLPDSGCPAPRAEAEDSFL
Sequence of UniProt P06493 (P06493 whole entry, looked up): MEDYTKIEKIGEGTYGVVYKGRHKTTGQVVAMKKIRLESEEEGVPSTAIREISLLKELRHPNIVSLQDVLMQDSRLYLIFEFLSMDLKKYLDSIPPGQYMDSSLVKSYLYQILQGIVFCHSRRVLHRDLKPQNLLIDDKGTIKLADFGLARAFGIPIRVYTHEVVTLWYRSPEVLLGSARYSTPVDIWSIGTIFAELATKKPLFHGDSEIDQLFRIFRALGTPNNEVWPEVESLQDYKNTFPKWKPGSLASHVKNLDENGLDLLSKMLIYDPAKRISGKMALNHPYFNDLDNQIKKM
Sequence of UniProt P06493 (P14635 whole entry, looked up, further chain): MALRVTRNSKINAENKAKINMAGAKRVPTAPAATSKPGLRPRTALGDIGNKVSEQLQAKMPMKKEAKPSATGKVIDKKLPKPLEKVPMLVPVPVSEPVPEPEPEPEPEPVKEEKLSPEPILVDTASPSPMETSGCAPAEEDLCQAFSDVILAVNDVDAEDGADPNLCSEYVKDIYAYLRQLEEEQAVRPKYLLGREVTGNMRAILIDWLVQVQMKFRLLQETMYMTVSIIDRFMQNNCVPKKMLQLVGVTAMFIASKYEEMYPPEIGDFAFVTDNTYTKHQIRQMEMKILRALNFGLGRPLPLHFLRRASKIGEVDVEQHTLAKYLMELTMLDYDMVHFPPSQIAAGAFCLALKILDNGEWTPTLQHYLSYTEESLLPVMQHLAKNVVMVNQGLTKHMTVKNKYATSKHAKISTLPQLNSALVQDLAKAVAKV

| GI50 [1] | GI50 [2] | inhibition [5] | inhibition [6] | inhibition [7] | inhibition [8] | inhibition [9] | IC50 [10] | Structure (SMILES) | GI50 [3] | GI50 [4] |
| --- | --- | --- | --- | --- | --- | --- | --- | --- | --- | --- |
| 2.71 µM | 9.34 µM | – | – | – | – | – | – | COc1ccc(CNc2ncc3c(n2)-c2cccnc2SC3)cc1 | 16.3 µM | 8.63 µM |
| > 20 µM | > 20 µM | – | – | – | – | – | – | c1ccc(-c2ncc3c(n2)-c2cccnc2SC3)cc1 | 17.1 µM | > 20 µM |
| 1.85 µM | 0.75 µM | 82% | 72% | 93% | 91% | 99% | – | COc1cc(Nc2ncc3c(n2)-c2cccnc2SC3)cc(OC)c1OC | 1.3 µM | 1.3 µM |
| > 20 µM | > 20 µM | – | – | – | – | – | – | COc1ccc(-c2ncc3c(n2)-c2cccnc2SC3)cc1 | > 20 µM | > 20 µM |
| 1.25 µM | 0.95 µM | – | – | – | – | – | – | c1ccc(Nc2ncc3c(n2)-c2cccnc2SC3)cc1 | 0.53 µM | 0.93 µM |
| 0.78 µM | 1.57 µM | – | – | – | – | – | – | COc1cccc(Nc2ncc3c(n2)-c2cccnc2SC3)c1 | 0.39 µM | 1.08 µM |
| 0.45 µM | 4.76 µM | – | – | – | – | – | – | Clc1cccc(CNc2ncc3c(n2)-c2cccnc2SC3)c1 | 5.55 µM | 8.6 µM |
| 8.3 µM | 9.4 µM | – | – | – | – | – | – | Clc1cccc(Nc2ncc3c(n2)-c2cccnc2SC3)c1 | 4.39 µM | 6.67 µM |
| > 20 µM | 13 µM | – | – | – | – | – | – | CN(c1ccccc1)c1ncc2c(n1)-c1cccnc1SC2 | 16 µM | 18.1 µM |
| 0.83 µM | 3.98 µM | – | – | – | – | – | – | FC(F)(F)c1cccc(Nc2ncc3c(n2)-c2cccnc2SC3)c1 | 4.95 µM | 1.13 µM |
| 1.57 µM | 2.73 µM | – | – | – | – | – | – | COc1cc(CNc2ncc3c(n2)-c2cccnc2SC3)cc(OC)c1OC | 7.92 µM | 5.4 µM |
| 1.1 µM | 1.23 µM | – | – | – | – | – | – | Fc1cccc(Nc2ncc3c(n2)-c2cccnc2SC3)c1 | 0.28 µM | 0.73 µM |
| 5.42 µM | 8.38 µM | – | – | – | – | – | – | Clc1ccc(CNc2ncc3c(n2)-c2cccnc2SC3)cc1 | 14.3 µM | 7.87 µM |
| 38 µM | 37 µM | – | – | – | – | – | – | Cc1cc(C)c(/C=C2\C(=O)Nc3ccccc32)[nH]1 [SEMAXANIB] | – | 27 µM |
| 5.1 µM | 9.06 µM | – | – | – | – | – | – | Brc1cccc(Nc2ncc3c(n2)-c2cccnc2SC3)c1 | 3.11 µM | 4.03 µM |
| 2.33 µM | 2.29 µM | – | – | – | – | – | – | Clc1ccc(Nc2ncc3c(n2)-c2cccnc2SC3)cc1 | 2.55 µM | 2.52 µM |
| 9.83 µM | 8.93 µM | – | – | – | – | – | – | COc1ccc(CNc2ncc3c(n2)-c2cccnc2SC3)cc1OC | > 20 µM | 5.73 µM |
| 9.65 µM | 11.4 µM | – | – | – | – | – | – | c1ccc(CNc2ncc3c(n2)-c2cccnc2SC3)cc1 | 14.8 µM | 13.8 µM |
| 0.45 µM | 3.63 µM | – | – | – | – | – | – | COc1cccc(CNc2ncc3c(n2)-c2cccnc2SC3)c1 | 1.46 µM | 9.5 µM |
| 0.54 µM | 0.67 µM | 79% | 56% | 97% | 98% | 97% | 0.19 µM | COc1ccc(Nc2ncc3c(n2)-c2cccnc2SC3)cc1OC | 1.93 µM | 0.66 µM |
| 16 µM | 5.83 µM | – | – | – | – | – | – | Clc1ccc(-c2ncc3c(n2)-c2cccnc2SC3)cc1 | 10.2 µM | 11.6 µM |
| 0.084 µM | 0.12 µM | 89% | 0% | 98% | 100% | 57% | 0.52 µM | COc1ccc(Nc2ncc3c(n2)-c2cccnc2SC3)cc1 | 0.11 µM | 0.13 µM |
| 0.47 µM | 3.4 µM | – | – | – | – | – | – | Brc1cccc(CNc2ncc3c(n2)-c2cccnc2SC3)c1 | 0.35 µM | 0.78 µM |
